Data from paper PMC4336329 (PLoS ONE, 2015).
Screen size: about 310,000 compounds; about 2,200 (0.71%) showed an effect of 50% or more. Effects have a minus sign here. The list shows a part of the results.

Target: human ether-à-go-go-related gene (hERG) potassium channel (human, UniProt Q12809)
Assay: primary screen, population patch clamp on CHO cells stably expressing hERG

Chain of human ether-à-go-go-related gene (hERG) potassium channel (Q12809 whole entry, looked up): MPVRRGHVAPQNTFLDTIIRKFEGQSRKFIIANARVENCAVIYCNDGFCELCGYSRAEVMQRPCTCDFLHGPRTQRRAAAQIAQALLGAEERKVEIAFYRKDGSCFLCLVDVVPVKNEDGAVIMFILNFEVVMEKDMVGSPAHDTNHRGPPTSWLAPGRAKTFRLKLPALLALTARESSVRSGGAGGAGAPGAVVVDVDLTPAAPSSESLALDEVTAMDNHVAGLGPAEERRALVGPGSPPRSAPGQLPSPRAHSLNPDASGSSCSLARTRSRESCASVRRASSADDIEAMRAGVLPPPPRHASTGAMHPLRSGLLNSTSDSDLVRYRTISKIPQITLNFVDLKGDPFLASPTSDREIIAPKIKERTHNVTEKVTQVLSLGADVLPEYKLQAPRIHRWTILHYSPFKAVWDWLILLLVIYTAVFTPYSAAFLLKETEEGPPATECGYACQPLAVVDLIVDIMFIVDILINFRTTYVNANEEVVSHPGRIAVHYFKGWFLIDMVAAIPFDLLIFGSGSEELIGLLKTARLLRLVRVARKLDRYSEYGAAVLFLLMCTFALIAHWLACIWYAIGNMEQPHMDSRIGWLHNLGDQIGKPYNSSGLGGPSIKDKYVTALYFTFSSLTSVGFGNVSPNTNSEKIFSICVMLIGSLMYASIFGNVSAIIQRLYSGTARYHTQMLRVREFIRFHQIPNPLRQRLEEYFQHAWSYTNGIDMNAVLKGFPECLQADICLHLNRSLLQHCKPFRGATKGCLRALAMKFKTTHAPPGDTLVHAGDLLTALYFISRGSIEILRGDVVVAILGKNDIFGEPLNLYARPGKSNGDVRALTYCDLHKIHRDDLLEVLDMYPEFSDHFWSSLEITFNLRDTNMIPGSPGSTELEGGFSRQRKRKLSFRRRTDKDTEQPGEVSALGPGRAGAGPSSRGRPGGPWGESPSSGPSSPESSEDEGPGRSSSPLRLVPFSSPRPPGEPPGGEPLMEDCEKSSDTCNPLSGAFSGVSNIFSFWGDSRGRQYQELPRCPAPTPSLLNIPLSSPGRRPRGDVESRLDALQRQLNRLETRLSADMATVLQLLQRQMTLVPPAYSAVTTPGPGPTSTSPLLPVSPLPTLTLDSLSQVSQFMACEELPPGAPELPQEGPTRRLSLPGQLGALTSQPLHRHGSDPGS

Compound | hERG current change (%, negative = inhibition) at 1uM [%]
CCCn1nnnc1NCc1ccc(OC)cc1 | 14.8
O=C(NCc1nc(-c2ccc(C(F)(F)F)cc2)no1)c1cccs1 | 10.5
N=c1c2c(ncn1CCN1CCOCC1)Oc1ccc3ccccc3c1C2c1ccccc1 (centres unmarked) | -5.37
O=C(NN1CCOCC1)c1cn(-c2ccccc2)nc1-c1cccs1 | 8.52
O=C(NC1(C(F)(F)F)NC(=O)N(Cc2ccco2)C1=O)c1cccs1 (centres unmarked) | 19.2
CCOc1ccc(NC(=O)CN(C)C(=O)c2cc(S(=O)(=O)N(C)C)ccc2N2CCCC2)cc1OCC | 11.7
CN(C)c1ccc(S(=O)(=O)c2ccc(Cl)cc2)cc1 | 4.44
Clc1ccc(-c2csc3ncnc(Cl)c23)cc1 | 10.5
CCOC(=O)C1CCc2sc(N)c(C#N)c21 (centres unmarked) | 6.97
CCCN(Cc1cc2cc(C)ccc2[nH]c1=O)C(=O)c1cccc(OC)c1 | -1.25
COc1ccc(F)cc1C(=O)C1CCCN(Cc2cnc(C)s2)C1 (centres unmarked) | 1.46
CCc1ccc(-c2cc3c(=O)n(CC(=O)NCCCN4CCN(Cc5ccccc5)CC4)nc(C)n3n2)cc1 | 4.42
Cc1cc2ncn(/N=C/c3ccc(-c4ccccc4)o3)c2cc1C | -0.761
CS(=O)c1ccccc1-c1nc(-c2cc(C(F)(F)F)cc(C(F)(F)F)c2)no1 (centres unmarked) | -21.1
Cn1nc(C(F)(F)F)cc1Oc1ncc(C(F)(F)F)cc1Cl | 12.5
COc1ccccc1C(=O)NCCC(=O)N1CCN(S(=O)(=O)c2ccc(Cl)cc2)CC1 | -8.49
O=C(O)c1cccc(NC(=S)N/N=C/c2ccccn2)c1 | 6.18
Cl.N=c1n(CCN2CCCCC2)c2ccccc2n1CC(O)c1cccc(Br)c1 (centres unmarked) | -41.7
O=C(CN1CCN(Cc2ccccc2Cl)C1=O)NCc1cccnc1 | 8.23
COc1ccc(-c2[nH]c(-c3ccc(Cl)cc3)nc2SCC(=O)Nc2nccs2)cc1 | 16.2
CCc1ccc(S(=O)(=O)NCc2cn3ccsc3n2)s1 | 12.6
Cc1cc(=O)n2nc(N3CCC(C(=O)NCc4ccccc4Cl)CC3)sc2n1 | 3.87

Compound | hERG current change (%, negative = inhibition) at 1uM [%]
S=c1[nH]nc(Cc2cccs2)n1-c1ccccc1Cl | 6.39
CN1C(=O)/C(=C\N2CCc3ccccc32)C(=O)NC1=S | 11.7
CCCOc1ccc(C2NC(=S)NC(C)=C2C(=O)c2ccccc2)cc1OC (centres unmarked) | 9.95
O=C(NCc1nnc(SCC(=O)N2CCN(c3ccccc3)CC2)o1)c1c(F)cccc1Cl | 2.49
CCn1c(=O)[nH]c2cc(Cl)c(Cl)cc21 | -14.2
CCCOc1ccccc1N1C(=O)CC(N2CCOCC2)C1=O (centres unmarked) | 7.58
COc1ccccc1N1CCN(C(CNC(=O)c2ccc3c(c2)OCO3)c2cccnc2)CC1 (centres unmarked) | 3.12
COc1cc2c(cc1OC)/C(=C/C(=O)c1ccccc1)NCC2 | 13.2
CC1=CCC2C(=O)N(c3cc(C)on3)C(=O)C2C1 (centres unmarked) | -4.4
O=[N+]([O-])c1ccc(N2CCN(CCOCCO)CC2)c([N+](=O)[O-])c1 | -12.6
CC1CN(C(=O)Nc2ccc3snnc3c2)c2ccccc21 (centres unmarked) | 6.96
CCOCCCN1CN(Cc2ccco2)CNC1=S | 13.5
O=C(NCc1ccccn1)c1ccc(Cn2cc(Br)cn2)o1 | 9.57
Cn1nc(-c2ccc(C(=O)Nc3cccc(Cl)c3)cc2)c2ccccc2c1=O | 5.56
COc1ccc(Cl)cc1NC(=O)CN1C(=O)NC2(CCCC2)C1=O | 14.5
CCN(C(=O)COC(=O)c1cccc(-n2cnnn2)c1)C1CCCCC1 | 17.6
O=C(/C=C\NCC(=O)c1ccccc1)c1ccccc1 | -2.05
Cc1ccc(C(=O)Nc2ccc(Oc3ccc(C(=O)O)c(C(=O)O)c3)cc2)cc1C | 0.709
COc1ccc(NC(=O)CSc2nnc(-c3ccco3)n2N)cc1Cl | 12
CCCCCCCCCOC(=O)C1N2C(=O)[C@@H](NC(=O)COc3ccccc3)[C@H]2SC1(C)C (some centres unmarked) | 6.58
O=C(Nc1nc(-c2ccco2)cs1)c1ccccc1 | 9.77
c1ccc(-c2nnc(CSc3nncs3)o2)cc1 | 7.17
